# Measurements reported in PubChem BioAssay (NCI).
#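 Compound exposure: 48 hours, 5 concentrations, 96-well plates. Here, GI50 denotes the concentration required for 50% inhibition of growth.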 The source holds more than one record for some entries. This is not the full list of results. An entry can have further records. For some of these results: Records of one sample usually come from different ranges of test concentrations, not given here; a value can be the end of its range. For some of these results: Values given together repeat one measurement in other runs, samples, wells, individuals or studies. Records carry a tag for their origin. Letters count within one entry.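 TGI: concentration producing complete growth inhibition.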
# Assays:
# Assay in all cases: NCI anticancer screen, dose series, 48 h
# [1] = tested on: RPMI-8226 leukemia
# [2] = tested on: U251 CNS
# [3] = tested on: UACC-62 melanoma
# [4] = tested on: OVCAR-8 ovarian
# [5] = tested on: NCI-H226 lung
# [6] = tested on: SNB-75 CNS
# [7] = tested on: SF-295 CNS
# [8] = tested on: CAKI-1 renal
# [9] = tested on: HOP-62 NSCLC
# [10] = tested on: HOP-92 NSCLC
# [11] = tested on: OVCAR-3 ovarian
# [12] = tested on: COLO 205 colon
# [13] = tested on: SK-MEL-28 melanoma
# [14] = tested on: MALME-3M melanoma
# [15] = tested on: T-47D breast
# [16] = tested on: IGROV1 ovarian
# [17] = tested on: A498 renal
# [18] = tested on: NCI-H522 lung
# [19] = tested on: HS 578T breast
# [20] = tested on: UACC-257 melanoma
# [21] = tested on: SK-OV-3 ovarian
# [22] = tested on: EKVX NSCLC
structure (smiles),measurement,setting,value
C[C@]12CC[C@H](OC3OC(CO)C(O)C(O)C3O)C[C@H]1CC[C@@H]1[C@@H]2CC[C@]2(C)[C@@H](C3=CCOC3=O)CC[C@]12O (stereo partly specified),GI50,[1],> 100 µM [1 test] and 8.48 µM [mean of 3 tests]
same,GI50,[2],> 100 µM and 3.84 µM
same,GI50,[3],> 100 µM and 1.08 µM
same,GI50,[4],> 100 µM [1 test] and 2.65 µM [mean of 4 tests]
same,TGI,[4],> 100 µM [1 test] and 5 µM [mean of 4 tests]
same,GI50,[5],"> 100 µM, 50.6 µM [1 test] and 3.74 µM [mean of 3 tests]"
same,GI50,[6],> 100 µM and 3.54 µM
same,GI50,[7],> 100 µM and 4.1 µM
same,GI50,[8],"> 100 µM, 5.24 µM [1 test] and 45.2 nM [mean of 3 tests]"
same,TGI,[8],> 100 µM [1 test] and 871 nM [mean of 3 tests]
same,GI50,[9],> 100 µM and 3.06 µM
COc1cc(Nc2nc3ccccc3nc2NS(=O)(=O)c2ccc(NC(=O)c3ccc(C)c(OC)c3)cc2)cc(OC)c1,GI50,[10],"3.4 µM [sample A, 1 test] and 1.3 µM [sample B, 1 test] and 174 nM [sample C, mean of 2 tests]"
same,TGI,[10],"23 µM [sample A, 1 test] and 9.59 µM [sample B, 1 test] and 1.85 µM [sample C, mean of 2 tests]"
same,TGI,[11],"> 100 µM [sample A, 1 test] and > 100 µM [sample B, 1 test] and 8.37 µM [sample C, mean of 2 tests]"
same,TGI,[12],"> 100 µM [sample A, 1 test] and 33.3 µM [sample B, 1 test] and 5.79 µM [sample C, mean of 2 tests]"
same,TGI,[13],"> 100 µM [sample A, 1 test] and > 100 µM [sample B, 1 test] and 3.31 µM [sample C, mean of 2 tests]"
same,TGI,[14],"43.3 µM [sample A, 1 test] and 66 µM [sample B, 1 test] and 2.48 µM [sample C, mean of 2 tests]"
same,GI50,[15],"2.89 µM [sample A, 1 test] and 13.6 µM [sample B, 1 test] and 424 nM [sample C, mean of 2 tests]"
same,TGI,[15],"> 100 µM [sample A, 1 test] and > 100 µM [sample B, 1 test] and 1.9 µM [sample C, mean of 2 tests]"
same,GI50,[16],"1.8 µM [sample A, 1 test] and 9.55 µM [sample B, 1 test] and 323 nM [sample C, mean of 2 tests]"
same,TGI,[16],"11.2 µM [sample A, 1 test] and 52.3 µM [sample B, 1 test] and 1.86 µM [sample C, mean of 2 tests]"
same,GI50,[17],"3.46 µM [sample A, 1 test] and 7.23 µM [sample B, 1 test] and 255 nM [sample C, mean of 2 tests]"
same,TGI,[17],"33.5 µM [sample A, 1 test] and 37.2 µM [sample B, 1 test] and 1.19 µM [sample C, mean of 2 tests]"
same,TGI,[18],"75 µM [sample A, 1 test] and 62.8 µM [sample B, 1 test] and 5.3 µM [sample C, mean of 2 tests]"
same,TGI,[19],"49.1 µM [sample A, 1 test] and 88.6 µM [sample B, 1 test] and 4.78 µM [sample C, mean of 2 tests]"
same,TGI,[20],"> 100 µM [sample A, 1 test] and 74.3 µM [sample B, 1 test] and 5.47 µM [sample C, mean of 2 tests]"
same,GI50,[3],"3.37 µM [sample A, 1 test] and 12 µM [sample B, 1 test] and 306 nM [sample C, mean of 2 tests]"
same,TGI,[3],"28.1 µM [sample A, 1 test] and 32.1 µM [sample B, 1 test] and 2.29 µM [sample C, mean of 2 tests]"
same,TGI,[5],"93 µM [sample A, 1 test] and > 100 µM [sample B, 1 test] and 7.32 µM [sample C, mean of 2 tests]"
same,TGI,[21],"95.5 µM [sample A, 1 test] and 4.78 µM [sample B, mean of 2 tests]"
same,TGI,[22],"> 100 µM [sample A, 1 test] and 7.89 µM [sample B, mean of 2 tests]"
